Measured values taken from patent US20220348632A1 (Novartis, published 2022).

Legend:
[1] = molecular target: T1, human MICA*008 over-expressed on CT26.WT cells (human); assay: cell-based or functional assay
T1 sequence (Q29983 whole entry, looked up): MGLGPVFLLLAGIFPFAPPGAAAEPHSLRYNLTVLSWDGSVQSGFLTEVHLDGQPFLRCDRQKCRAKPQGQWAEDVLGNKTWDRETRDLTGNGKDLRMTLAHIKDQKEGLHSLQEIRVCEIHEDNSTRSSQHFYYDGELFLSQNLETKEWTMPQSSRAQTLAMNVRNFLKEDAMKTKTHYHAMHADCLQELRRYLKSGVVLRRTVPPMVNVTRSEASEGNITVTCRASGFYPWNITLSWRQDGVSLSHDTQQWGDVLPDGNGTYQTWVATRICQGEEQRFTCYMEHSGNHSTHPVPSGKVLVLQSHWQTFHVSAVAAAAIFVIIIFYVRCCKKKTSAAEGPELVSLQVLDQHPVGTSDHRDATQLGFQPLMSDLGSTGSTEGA

[2] = molecular target: human MICB*001 over-expressed on CT26.WT cells (human); assay: cell-based or functional assay
[3] = molecular target: T2, human ULBP1 expressed on cells (human, UniProt Q9BZM6 26-216); assay: cell-based or functional assay
T2 sequence (looked up): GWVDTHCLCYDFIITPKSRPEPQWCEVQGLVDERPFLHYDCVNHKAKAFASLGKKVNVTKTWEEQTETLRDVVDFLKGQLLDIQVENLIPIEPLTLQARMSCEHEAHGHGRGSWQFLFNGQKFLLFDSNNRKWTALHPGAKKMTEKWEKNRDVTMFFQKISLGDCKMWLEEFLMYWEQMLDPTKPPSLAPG

[4] = molecular target: T3, human ULBP2 expressed on cells (human, UniProt Q9BZM5 26-217); assay: cell-based or functional assay
T3 sequence (looked up): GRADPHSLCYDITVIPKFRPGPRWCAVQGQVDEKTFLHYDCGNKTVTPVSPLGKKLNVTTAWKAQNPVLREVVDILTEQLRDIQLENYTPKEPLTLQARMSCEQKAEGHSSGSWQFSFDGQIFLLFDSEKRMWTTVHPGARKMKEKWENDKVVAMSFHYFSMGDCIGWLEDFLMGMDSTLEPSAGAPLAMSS

[5] = molecular target: T4, cynomolgus MICA*08 over-expressed on CT26.WT cells (cynomolgus); assay: cell-based or functional assay
[6] = molecular target: T5, cynomolgus MICB*05 over-expressed on CT26.WT cells (cynomolgus); assay: cell-based or functional assay
[7] = molecular target: T1, human MICA*008 over-expressed on …; assay: cell-based or functional assay; remark: listed apart in the source
[8] = molecular target: human MICB*001 over-expressed on CT26.WT cells (human); assay: cell-based or functional assay; remark: listed apart in the source
[9] = molecular target: T2, human ULBP1 expressed on cells; assay: cell-based or functional assay; remark: listed apart in the source
[10] = molecular target: T3, human ULBP2 expressed on cells; assay: cell-based or functional assay; remark: listed apart in the source
[11] = molecular target: T4, cynomolgus MICA*08 over-expressed on …; assay: cell-based or functional assay; remark: listed apart in the source
[12] = molecular target: T5, cynomolgus MICB*05 over-expressed on …; assay: cell-based or functional assay; remark: listed apart in the source
[13] = molecular target: T6, recombinant human MICA*001 ligand (human, UniProt Q29983 24-307, Biotinylated for capture on the SA chip in the bivalent setup, according to our card. The site is not given.); assay: SPR (Biacore T200), monovalent setup: NKG2D-Fc captured on Protein A chip, ligand as analyte
T6 construct: also called hMICA*001
T6 sequence: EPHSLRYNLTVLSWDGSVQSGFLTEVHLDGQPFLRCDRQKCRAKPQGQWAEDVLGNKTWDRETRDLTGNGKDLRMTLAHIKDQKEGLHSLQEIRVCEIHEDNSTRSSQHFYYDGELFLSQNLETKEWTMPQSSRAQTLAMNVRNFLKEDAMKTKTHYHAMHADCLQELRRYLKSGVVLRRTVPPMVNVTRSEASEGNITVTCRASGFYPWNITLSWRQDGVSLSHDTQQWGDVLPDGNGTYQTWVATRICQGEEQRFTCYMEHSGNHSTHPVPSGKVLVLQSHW
Experimental: (§1) A direct binding assay was performed to characterize the binding of the ADCC enhanced and wild-type NKG2D-Fc variants against recombinant human MICA*001 and MICB*001 ligands. The NKG2D-Fc variants were first used as ligand to characterize the binding of each NKG2D dimer to MICA and MICB (monovalent binding setup) and secondly as analyte in order to determine the effect on the binding when having two homodimers (bivalent binding setup).
(§2) For the monovalent binding setup, kinetic binding affinity constants (KD) were measured on protein-A captured NKG2D-Fc variants using recombinant human NKG2D ligands as analyte. Measurements were conducted on a BIAcore® T200 (GE Healthcare, Glattbrugg, Switzerland) at room temperature. The NKG2D-Fc variants were captured on the flow cell of a Protein A research grade sensor chip (GE Healthcare, ref 29127555). All proteins were diluted in 0.01 M HEPES pH 7.4, 0.15 M NaCl, 3 mM EDTA, 0.005% v/v Surfactant P20. To serve as reference, one flow cell was left blank without any captured protein. Binding data were acquired by subsequent injection of analyte dilutions series on the reference and measuring flow cell. Zero concentration samples (running buffer only) were included to allow double referencing during data evaluation. For data evaluation, doubled referenced sensograms were used and dissociation constants (KD) analyzed.

[14] = molecular target: T7, recombinant human MICB*001 ligand (human, UniProt Q29980 23-309, Biotinylated for capture on the SA chip in the bivalent setup, according to our card. The site is not given.); assay: as above
T7 construct: also called hMICB*001
T7 sequence: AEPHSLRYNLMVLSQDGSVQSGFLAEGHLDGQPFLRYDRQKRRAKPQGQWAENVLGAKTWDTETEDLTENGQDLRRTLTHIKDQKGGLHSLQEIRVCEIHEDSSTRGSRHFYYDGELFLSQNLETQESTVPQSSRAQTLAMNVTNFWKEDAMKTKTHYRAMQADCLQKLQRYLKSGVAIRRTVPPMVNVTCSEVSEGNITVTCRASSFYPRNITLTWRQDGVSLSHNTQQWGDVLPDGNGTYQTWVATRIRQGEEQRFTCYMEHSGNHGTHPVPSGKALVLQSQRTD
Experimental: as §1, §2

[15] = molecular target: T6, recombinant human MICA*001 ligand; assay: SPR (Biacore T200), bivalent setup: biotinylated ligand captured on SA chip, NKG2D-Fc as analyte
Experimental: as §1
(§3) For the bivalent binding setup, kinetic binding affinity constants (KD) were measured on streptavidin captured recombinant human NKG2D ligands using NKG2D-Fc variants as analyte. Measurements were conducted on a BIAcore® T200 (GE Healthcare, Glattbrugg, Switzerland) at room temperature. All proteins were diluted in 0.01 M HEPES pH 7.4, 0.15 M NaCl, 3 mM EDTA, 0.005% v/v Surfactant P20. The biotinylated NKG2D ligands were covalently captured on the flow cells of a SA research grade sensor chip (GE Healthcare, ref 29104992) using standard procedure according to the manufacturer's recommendation (GE Healthcare). To serve as reference, one flow cell was blank immobilized. Binding data were acquired by subsequent injection of analyte dilutions series on the reference and measuring flow cell. Zero concentration samples (running buffer only) were included to allow double referencing during data evaluation. For data evaluation, doubled referenced sensograms were used and dissociation constants (KD) analyzed.

[16] = molecular target: T7, recombinant human MICB*001 ligand; assay: as above
Experimental: as §1, §3

B1: HH10, hNKG2D(aa84-216)-RS(G3S)2-hNKG2D(aa84-216)-hFc1[S239D, I332E] (Fc fusion)
chain: NQEVQIPLTESYCGPCPKNWICYKNNCYQFFDESKNWYESQASCMSQNASLLKVYSKEDQDLLKLVKSYHWMGLVHIPTNGSWQWEDGSILSPNLLTIIEMQKGDCALYASSFKGYIENCSTPNTYICMQRTVRSGGGSGGGSNQEVQIPLTESYCGPCPKNWICYKNNCYQFFDESKNWYESQASCMSQNASLLKVYSKEDQDLLKLVKSYHWMGLVHIPTNGSWQWEDGSILSPNLLTIIEMQKGDCALYASSFKGYIENCSTPNTYICMQRTV[human IgG1 Fc with changes left out here]
notes: ADCC-enhanced Fc variant (SDIE); homodimer
Question: Which results are given for B1?
Answer: EC50 (ng/mL), hRGA killing (Human CD16 RGA) [1]: 0.2 ng/mL; EC50 (ng/mL), hRGA killing (Human CD16 RGA) [2]: 9.5 ng/mL; EC50 (ng/mL), hRGA killing (Human CD16 RGA) [3]: 0.3 ng/mL; EC50 (ng/mL), hRGA killing (Human CD16 RGA) [4]: 1.2 ng/mL; EC50 (ng/mL), hRGA killing (Human CD16 RGA) [5]: 0.3 ng/mL; EC50 (ng/mL), hRGA killing (Human CD16 RGA) [6]: 145 ng/mL; ADCC EC50 (pM), FcγRIIIa reporter gene assay [7]: 1.33 pM; ADCC EC50 (pM), FcγRIIIa reporter gene assay [8]: 8.21 pM; ADCC EC50 (pM), FcγRIIIa reporter gene assay [9]: 2.71 pM; ADCC EC50 (pM), FcγRIIIa reporter gene assay [10]: 10.5 pM; ADCC EC50 (pM), FcγRIIIa reporter gene assay [11]: 2.3 pM; ADCC EC50 (pM), FcγRIIIa reporter gene assay [12]: 1250 pM; Kd [13]: 77.5 nM; Kd [14]: 86 nM; Kd [15]: 0.82 nM; koff [15]: 0.000907 s⁻¹; kon [15]: 1.11e+06 M⁻¹ s⁻¹; Kd [16]: 0.53 nM; koff [16]: 0.00328 s⁻¹; kon [16]: 6.22e+06 M⁻¹ s⁻¹

B2: HH2, hNKG2D(aa78-216)-RS(G3S)2-hNKG2D(aa78-216)-hFc1 (Fc fusion)
chain: FLNSLFNQEVQIPLTESYCGPCPKNWICYKNNCYQFFDESKNWYESQASCMSQNASLLKVYSKEDQDLLKLVKSYHWMGLVHIPTNGSWQWEDGSILSPNLLTIIEMQKGDCALYASSFKGYIENCSTPNTYICMQRTVRSGGGSGGGSFLNSLFNQEVQIPLTESYCGPCPKNWICYKNNCYQFFDESKNWYESQASCMSQNASLLKVYSKEDQDLLKLVKSYHWMGLVHIPTNGSWQWEDGSILSPNLLTIIEMQKGDCALYASSFKGYIENCSTPNTYICMQRTV[human IgG1 Fc left out here]
notes: Homodimer
Question: For B2, which “EC50 (ng/mL), hRGA killing (Human CD16 RGA)” value (from here on “EC50 (ng/mL), hRGA killing”) [1] is on record?
Answer: Its value is 4.7 ng/mL.

Question: And the “EC50 (ng/mL), hRGA killing” value [2]?
Answer: Its value is 91 ng/mL.

Question: And the “EC50 (ng/mL), hRGA killing” value [3]?
Answer: Its value is 8.3 ng/mL.

Question: And the “EC50 (ng/mL), hRGA killing” value [4]?
Answer: Its value is 15 ng/mL.

Question: What about the “EC50 (ng/mL), hRGA killing” value [5] of the same binder?
Answer: Its value is 7.3 ng/mL.

Question: And the “EC50 (ng/mL), hRGA killing” value [6]?
Answer: The value was 1350 ng/mL.

B3: HH5, hNKG2D(aa78-216)-RS(G3S)2-hNKG2D(aa78-216)-hFc1[S239D, I332E] (Fc fusion)
chain: FLNSLFNQEVQIPLTESYCGPCPKNWICYKNNCYQFFDESKNWYESQASCMSQNASLLKVYSKEDQDLLKLVKSYHWMGLVHIPTNGSWQWEDGSILSPNLLTIIEMQKGDCALYASSFKGYIENCSTPNTYICMQRTVRSGGGSGGGSFLNSLFNQEVQIPLTESYCGPCPKNWICYKNNCYQFFDESKNWYESQASCMSQNASLLKVYSKEDQDLLKLVKSYHWMGLVHIPTNGSWQWEDGSILSPNLLTIIEMQKGDCALYASSFKGYIENCSTPNTYICMQRTV[human IgG1 Fc with changes left out here]
Question: How did the “EC50 (ng/mL), hRGA killing” value [1] turn out when B3 was run?
Answer: Its value is 1 ng/mL.

Question: What about the “EC50 (ng/mL), hRGA killing” value [2] of the same binder?
Answer: Its value is 16 ng/mL.

Question: And the “EC50 (ng/mL), hRGA killing” value [3]?
Answer: The value was 1.2 ng/mL.

Question: And the “EC50 (ng/mL), hRGA killing” value [4]?
Answer: The value was 0.9 ng/mL.

Question: And the “EC50 (ng/mL), hRGA killing” value [5]?
Answer: The value was 0.2 ng/mL.

Question: What about the “EC50 (ng/mL), hRGA killing” value [6] of the same binder?
Answer: The value was 89 ng/mL.

B4: HH8-AFUCO (Fc fusion)
chain: NQEVQIPLTESYCGPCPKNWICYKNNCYQFFDESKNWYESQASCMSQNASLLKVYSKEDQDLLKLVKSYHWMGLVHIPTNGSWQWEDGSILSPNLLTIIEMQKGDCALYASSFKGYIENCSTPNTYICMQRTVRSGGGSGGGSNQEVQIPLTESYCGPCPKNWICYKNNCYQFFDESKNWYESQASCMSQNASLLKVYSKEDQDLLKLVKSYHWMGLVHIPTNGSWQWEDGSILSPNLLTIIEMQKGDCALYASSFKGYIENCSTPNTYICMQRTV[human IgG1 Fc left out here]
modifications: afucosylated: IgG1-Fc wt with low content of fucose
notes: it differs only in the glycan (low fucose); also called HH8_afuc with IgG1-Fc wt with low content of fucose
Question: With B4 as the binder, how does the Kd [13] read?
Answer: The Kd was 70 nM.

Question: What about the Kd [14] of the same binder?
Answer: The Kd was 104 nM.

Question: And the Kd [15]?
Answer: The Kd was 1.41 nM.

Question: What about the koff [15] of the same binder?
Answer: Its koff is 0.00107 s⁻¹.

Question: What about the kon [15] of the same binder?
Answer: The kon was 755000 M⁻¹ s⁻¹.

Question: What about the Kd [16] of the same binder?
Answer: The Kd was 1.05 nM.

Question: What about the koff [16] of the same binder?
Answer: Its koff is 0.00411 s⁻¹.

Question: And the kon [16]?
Answer: The kon was 3.93e+06 M⁻¹ s⁻¹.
